# Source: publication PMC7819943, “Rice protein-binding microarrays: a tool to detect cis-acting elements near promoter regions in rice”
# This is one part of the list.
# Target: T1, OsWOX13 (Oryza sativa, UniProt Q5QMM3 1-267)
# T1 sequence: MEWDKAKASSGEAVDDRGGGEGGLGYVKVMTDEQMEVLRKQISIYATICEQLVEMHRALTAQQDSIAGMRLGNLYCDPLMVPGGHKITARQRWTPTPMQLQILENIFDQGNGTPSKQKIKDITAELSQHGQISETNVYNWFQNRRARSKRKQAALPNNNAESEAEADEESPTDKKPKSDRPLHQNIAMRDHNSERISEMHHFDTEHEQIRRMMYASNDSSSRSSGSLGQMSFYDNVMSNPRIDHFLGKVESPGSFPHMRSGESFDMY
# Test: protein-binding microarray (RPBM); PBS, 2% BSA, 51.3 ng/ul salmon testes DNA, 50 uM zinc acetate, 200 nM TF, 25 C, 1 h; high values mean tight binding
# Conditions: protein: recombinant; tags: N-terminal polyhistidine and DsRed monomer fusion (pET32a); label: CyDye5-dUTP incorporated in the synthesized complementary strand; 3' TTTTT single-stranded linker to array surface; dsDNA, one strand shown
# Procedure, shortened: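 Binding signal is reported as fluorescence intensity per feature (arbitrary units) from an Axon 4000B scanner. Incubation used 200 nM of each Ni–NTA-purified, N-terminally polyhistidine- and DsRed-fused transcription factor from E. coli BL21-CodonPlus on a double-stranded custom Agilent array for 1 h at 25 °C, with 50 µM zinc acetate in the buffer, followed by washing.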
row,Sequence,binding signal
1,GTTTGATGCAAATGGGAAATTGGCGTGTGGGGCCGGAGGGCGGAGTCACCTAGTGCAG,4380 fluorescence intensity (a.u.)
2,CAAATAAAATTCAATAATTGTATACTCCTTATCTTGGATTCGGAGTCACCTAGTGCAG,4310 fluorescence intensity (a.u.)
3,ATTAATTAAGTTATATACAGCAGTAGTTAATTAACTAGCTCGGAGTCACCTAGTGCAG,30400 fluorescence intensity (a.u.)
4,CCCATAAATTTCTGGCCATTGATTCTTGGTCGAATGGCTACGGAGTCACCTAGTGCAG,5840 fluorescence intensity (a.u.)
5,CTAACTGATACTAATTTCTTAGCAATTGTTTGTGGGTAGTCGGAGTCACCTAGTGCAG,23100 fluorescence intensity (a.u.)
6,TACCATAATTTTGTCATTCTTGTTGAAATTTTGTAACATACGGAGTCACCTAGTGCAG,9640 fluorescence intensity (a.u.)
7,TTATAATTAATTACATAAAGTAAATCTTTCTCAACTTTTCCGGAGTCACCTAGTGCAG,27400 fluorescence intensity (a.u.)
8,ACATAATTTGGGCCCACCTGTAGGTGAAAATCCCGTTCTCCGGAGTCACCTAGTGCAG,4950 fluorescence intensity (a.u.)
9,GTTTGTTCTTTGTTTGATTAGCTTGAGAGGAAGGGGATAACGGAGTCACCTAGTGCAG,7520 fluorescence intensity (a.u.)
10,AGTTATTGATTTTCTGAGGATGTTTGTGTTGCATCCTGATCGGAGTCACCTAGTGCAG,20200 fluorescence intensity (a.u.)
11,AGTAATTATTCACATACTAAATTAATCATTAAATGAGCTGCGGAGTCACCTAGTGCAG,25300 fluorescence intensity (a.u.)
12,CATAATTGAGTCTGATTGGCACAAACCTAGAGAACATGCCCGGAGTCACCTAGTGCAG,65500 fluorescence intensity (a.u.)
13,CGCCTCTTTCTCAATCATTGTATAGGAATGTTTGTTTATGCGGAGTCACCTAGTGCAG,7720 fluorescence intensity (a.u.)
14,GTGATTGATTCGATTGATTGCCGCATCCACAGTTCTTTTCCGGAGTCACCTAGTGCAG,54700 fluorescence intensity (a.u.)
15,GTTGATGGCGTAAACTAGAAGTACGCTTCTCCACTGCATCCGGAGTCACCTAGTGCAG,3210 fluorescence intensity (a.u.)
16,AATGCTTGATTAATTAGTTGCTTATCCAACCACGCATCATCGGAGTCACCTAGTGCAG,31600 fluorescence intensity (a.u.)
17,GGTATTGACATGACAGAATTAGCTCGACGTGGAAAACTGGCGGAGTCACCTAGTGCAG,34800 fluorescence intensity (a.u.)
18,AATTAACTGTTACATTTGTATGGGCCTAATTAGACCCAGTCGGAGTCACCTAGTGCAG,20600 fluorescence intensity (a.u.)
19,TTAATTGTTTTATCCTATTAATTGGTAGAAGCGGTATTTTCGGAGTCACCTAGTGCAG,26700 fluorescence intensity (a.u.)
20,AGTTTTAAAATTTAAATTTTGGTTGGGTTGGCTGGTAAACCGGAGTCACCTAGTGCAG,8490 fluorescence intensity (a.u.)
21,ATTGATAAGCCTAATTTAGACATCAAACCAAACCAGCCCTCGGAGTCACCTAGTGCAG,14300 fluorescence intensity (a.u.)

row,Sequence,binding signal
1,ATTAATCCCAAATTGATTAGTAGTCGCTAACTCGTGGGGACGGAGTCACCTAGTGCAG,42100 fluorescence intensity (a.u.)
2,CTTGATTACCCCGTAGTCAGGTTTGTATGACTAAGCAACCCGGAGTCACCTAGTGCAG,28100 fluorescence intensity (a.u.)
3,AACAAAGATTTGTTATCAAATAGTTGCAAATGATTAGTTACGGAGTCACCTAGTGCAG,3490 fluorescence intensity (a.u.)
4,CCCGTGATCGATTGGATCATCGGATTGCATGTTAGTACTGCGGAGTCACCTAGTGCAG,12000 fluorescence intensity (a.u.)
5,AATATATTTAATATTAGATTTGATGAAATTAATTAGGTGTCGGAGTCACCTAGTGCAG,14700 fluorescence intensity (a.u.)
6,TTATGTCCCAGCCTTAGTGATTGAAGTTTCAAACAGTTCTCGGAGTCACCTAGTGCAG,8380 fluorescence intensity (a.u.)
7,TAGAAATAATTGAGCACGTTTGTCTACACAAACGCAACGCCGGAGTCACCTAGTGCAG,19700 fluorescence intensity (a.u.)
8,GGGATTGAATTGAATGACAACTGATGCCACGATTTCGACGCGGAGTCACCTAGTGCAG,42500 fluorescence intensity (a.u.)
9,CCCGTCTCCATTTCTTTTGTCTCTCTCTCGCTCTTCAAATCGGAGTCACCTAGTGCAG,3400 fluorescence intensity (a.u.)
10,CAAATTGAATGGCTGTTGAAGTTCTGTATGTTGGAAAGCCCGGAGTCACCTAGTGCAG,49400 fluorescence intensity (a.u.)
11,GCGAGATTGGAAGGGAAGAGATCCCAATCGGCGTCGGTTACGGAGTCACCTAGTGCAG,10400 fluorescence intensity (a.u.)
12,CCAAACAGGTGGACTAATTTGGGGTTAAAGTGAATTAGCCCGGAGTCACCTAGTGCAG,24700 fluorescence intensity (a.u.)
13,GTCACAACAAATTGGCATTGAGATTTGTCATTTGAGAGAGCGGAGTCACCTAGTGCAG,22000 fluorescence intensity (a.u.)
14,AAATGATGTGGAGATAATGATTTGACATTGCTTACATATTCGGAGTCACCTAGTGCAG,6350 fluorescence intensity (a.u.)
15,TTTTAAAATTTTAAACCTAGATTTAAACTTGAAATTTGAACGGAGTCACCTAGTGCAG,3590 fluorescence intensity (a.u.)
16,GCCAAATTGAAAGGAGAAATGATGATAAAGGATGAGGAGTCGGAGTCACCTAGTGCAG,26800 fluorescence intensity (a.u.)
17,ATGGGCTGATTGGGCCAGATTACACGTGCGACGTATCTGTCGGAGTCACCTAGTGCAG,35800 fluorescence intensity (a.u.)
18,CGATGATAGATCTGGTCTGGCGAATAGGCATGTGCTTGGTCGGAGTCACCTAGTGCAG,14700 fluorescence intensity (a.u.)
19,TTAAAATACAAATCTAATTATACTACATGCATTAACATAACGGAGTCACCTAGTGCAG,6200 fluorescence intensity (a.u.)
20,TTGACGGGATGTTGATGGCGACGGTGCTCTTCTCTGTGTGCGGAGTCACCTAGTGCAG,5280 fluorescence intensity (a.u.)
21,CAGAATTGAAGATGAGGGTCAATGCGCCAATAGAGCTGGTCGGAGTCACCTAGTGCAG,5130 fluorescence intensity (a.u.)
